US20160208003A1 (AFFITECH RESEARCH, published 2016)

Molecular target: T1, human CC chemokine receptor 4 (CCR4) (human, UniProt P51679 1-360)
T1 construct: whole, on cells; Always presented on cells; also called CD194; human CCR4
T1 sequence (looked up): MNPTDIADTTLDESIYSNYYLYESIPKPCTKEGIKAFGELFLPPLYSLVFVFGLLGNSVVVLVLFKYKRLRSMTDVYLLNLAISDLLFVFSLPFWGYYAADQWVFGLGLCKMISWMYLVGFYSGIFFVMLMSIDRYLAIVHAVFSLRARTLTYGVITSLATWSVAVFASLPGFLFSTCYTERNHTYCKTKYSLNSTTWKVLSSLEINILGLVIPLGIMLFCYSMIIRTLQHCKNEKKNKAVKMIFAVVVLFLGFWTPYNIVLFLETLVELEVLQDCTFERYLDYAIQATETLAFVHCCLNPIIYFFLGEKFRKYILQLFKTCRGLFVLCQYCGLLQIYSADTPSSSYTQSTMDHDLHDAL
Test: flow cytometry (EasyCyte), purified scFv

B1: 17G scFv (scFv)
scFv: [letters of about 100 residues omitted]IRYSAGYWGQGTLVTVSSKLSGSASAPKLEEGEFSEARVSYVLTQPPSASGTPGQRVTISCSGSSSNIGSNYVYWYQQLPGTAPKLLIYRNNQRPSGVPDRFSGSKSGTSASLAISGLRSEDEADYYCAAWDDRLSGWVFGGGTKLTVLAAAGSEQKLISEEDLNSHHHHHH
notes: For staining the scFv was pre-incubated with an anti-c-myc antibody with human Fc (cross-linked, dimer-like); also called scFv 17G
- binding result: binds
